# Reference: PubChem BioAssay (NCI)
#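 Dose response: 5 concentrations. Exposure: 48 h. Format: 96-well plates. Endpoint: linear interpolation; highest concentration if not reached. The concentration for 50% growth inhibition is given as GI50.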 For part of its entries the source gives two or more results. They are shown here; other results are not. There may be further records. The values listed for one entry are repeated measurements in other runs, samples, wells, individuals or studies. A tag in brackets gives the origin of a value. A, B and so on number the origins entry by entry.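 TGI: total growth inhibition.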
# Legend:
# Test in all cases: DTP human tumour cell line panel, 48 h
# [1] = tested on: MALME-3M melanoma
# [2] = tested on: PC-3 prostate
# [3] = tested on: SK-MEL-2 melanoma
# [4] = tested on: SNB-19 CNS
# [5] = tested on: SR leukemia
# [6] = tested on: TK-10 renal
smiles,measurement,setting,value
CCc1nc(C(N)=O)c(Nc2ccc(N3CCC(N4CCN(C)CC4)CC3)c(OC)c2)nc1NC1CCOCC1,TGI,[1],"25.3 µM [sample A, 1 test] and 699 nM [sample B, 1 test] and 21.9 µM [sample C, 1 test]"
same,GI50,[2],"10.2 µM [sample A, 1 test] and 250 nM [sample B, mean of 2 tests] and 8.37 µM [sample C, 1 test]"
same,GI50,[3],"8.25 µM [sample A, mean of 2 tests] and 181 nM [sample B, 1 test] and 6.51 µM [sample C, mean of 2 tests]"
same,TGI,[3],"25.1 µM [sample A, mean of 2 tests] and 426 nM [sample B, 1 test] and 26.6 µM [sample C, mean of 2 tests]"
same,GI50,[4],"5.9 µM [sample A, mean of 2 tests] and 310 nM [sample B, 1 test] and 8.37 µM [sample C, mean of 2 tests]"
same,TGI,[5],"733 nM [sample A, mean of 2 tests] and 44.3 nM [sample B, mean of 2 tests] and 7.75 µM [sample C, 1 test]"
same,TGI,[6],"15.7 µM [sample A, mean of 2 tests] and 778 nM [sample B, 1 test] and 16 µM [sample C, mean of 2 tests]"
